Measured values as given in PubChem BioAssay AID686978 (National Center for Advancing Translational Sciences (NCATS), 2013).
Out of some 420,000 compounds screened, about 64,000 (15%) were called active. The inconclusive results got no clear call from the source; some entries with a clear call stand among them for comparison. Calls come from the whole dose curve; as a rule, active = well fitted inhibition curve with a large enough effect; inconclusive = small, poorly fitted or top-dose-only effect; inactive = flat fitted curve, though single readings scatter. Potencies of inconclusive entries are left out as doubtful fits.

Test: qHTS for Inhibitors of human tyrosyl-DNA phosphodiesterase 1 (TDP1): qHTS in cells in absence of CPT; note: nearly all actives have a fitted effect of over 55% in size
Settings: DT40 Tdp1-/- hTDP1 cells, no CPT, ATP luminescence, 48 h; series mostly up to 46.2 µM
Method in brief: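 DT40 Tdp1-/-;hTDP1 cells, no CPT (DMSO vehicle only), 400 cells/well; compounds pin-transferred; ≥48 hr, 37 °C; CellTiter-Glo 30 min RT dark, luminescence read.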
Potency is the fitted concentration of half-maximal effect; tags give direction and shape of the fitted curve.

SMILES | Potency
CCn1c2ccccc2c2cc(NC(=O)CC(C)=O)ccc21 | inactive
COc1cc(Cl)c(C)cc1NC(=O)COc1ccccc1[N+](=O)[O-] | inconclusive [inhibitor, partial curve]
Oc1[nH]c2ccccc2c1N=Nc1ccccn1 | inactive
O=C(Nc1ccc(S(=O)(=O)Nc2ncccn2)cc1)c1ccc(Br)cc1 | inactive
COc1ccc(CN2CC(C(=O)NCCc3ccc(C)cc3)CC2=O)cc1 (centres undefined) | inactive
Cc1c(C(=O)O)sc2nc(/C=C/c3cccc(O)c3)[nH]c(=O)c12 | inactive
Cc1noc(C)c1C(=O)Nc1nc(-c2ccc(F)cc2)cs1 | inactive
O=c1[nH]oc(O)c1-c1ncc(C(F)(F)F)cc1Cl | inconclusive [inhibitor, partial curve]
CCOC(=O)C1(Cc2cccc(OC)c2)CCN(Cc2ccc(OC)c(O)c2)CC1 | inconclusive [inhibitor, partial curve]
Cc1ccc(NC(=O)c2ccc3c(=O)n4c(nc3c2)CCC4)cc1S(=O)(=O)N(C)C | inconclusive [inhibitor, partial curve]
CC(C)COC(=O)C(N)C(C(=O)OCC(C)C)c1ccccc1 (centres undefined) | inconclusive [inhibitor, single point]
COc1nc2c(C)cccc2cc1-c1noc(-c2ccco2)n1 | active: 0.146 µM
Cc1ccc(C2=N/C(=C\c3cccc(F)c3)C(=O)O2)cc1 | inactive
CCOC(=O)C1=C(CBr)NC(=O)NC1C (centres undefined) | inconclusive [inhibitor, single point]
CCCSCCCNC(=O)C1CCN(C(=O)c2cc3sccc3n2C)CC1 | active: 20.6 µM
Cc1cc(/C([O-])=C(/C(=S)Nc2ccc(F)cc2)[n+]2ccccc2)c(C)n1Cc1ccccc1Cl | active: 23.1 µM
O=S(=O)(c1ccc(-n2cnnn2)cc1)N1CCN(c2ccccc2F)CC1 | inconclusive [inhibitor, single point]
O=C(Nc1nc(-c2ccc(Br)cc2)ns1)c1ccc(F)cc1 | active: 18.4 µM
Cc1ccc2oc(C(=O)N(CCO)Cc3ccccc3)c(C)c2c1 | inconclusive [inhibitor, single point]
O=c1cc(C(F)F)oc2c1ccc1ccccc12 | inactive
CCCCOc1ccc(C2c3c(-c4ccccc4O)n[nH]c3C(=O)N2Cc2ccncc2)cc1OC (centres undefined) | active: 23.1 µM
Cc1cccc(S(=O)(=O)NCCNS(=O)(=O)c2cccc(C)c2)c1 | inconclusive [inhibitor, partial curve]
Cc1cc(F)ccc1S(=O)(=O)Nc1ccccc1C(=O)NC1CCN(Cc2ccccc2)CC1 | inconclusive [inhibitor, single point]
CCC1CCCCN1S(=O)(=O)c1ccc(NC(=O)c2cc(=O)c3ccccc3o2)cc1 (centres undefined) | inconclusive [inhibitor, full curve]
CCCCc1ccc(S(=O)(=O)NC(=O)C2(C)CCN2C(=O)c2ccccc2)cc1 (centres undefined) | inactive

SMILES | Potency
COC(=O)Nc1nnc(Cc2ccc(OC)cc2)s1 | inactive
CCOC(=O)c1sc(NC(=O)CSc2nc(C)cc(-c3ccccc3)n2)c(C#N)c1C | inactive
O=[N+]([O-])c1ccc(N/N=C/c2cccc(O)c2)cc1 | active: 20.6 µM
CCN(CCCNC(=O)c1cc2c(=O)[nH]c3ccccc3c2s1)c1ccccc1 | inconclusive [inhibitor, single point]
CCn1c2ccccc2c2cc(NC(=O)CSc3nnc(-c4ccccc4OC)n3N)ccc21 | inconclusive [inhibitor, single point]
Cc1occc1-c1nnc(SCC(=O)Nc2ccccc2)n1C | inactive
CCOc1ccccc1NC(=O)COC(=O)CN(C)S(=O)(=O)c1ccc(C)cc1 | inconclusive [inhibitor, single point]
C[C@]1(O)CC(=O)C=C[C@H]1Nc1ccccc1 | active: 18.4 µM
CC1=Nc2cc(C(=O)N3CCCC3)ccc2Sc2c(C)ccc(C)c21 | inconclusive [inhibitor, single point]
CCOc1ccc(-n2c(C)nc3c(cnn3-c3ccc(C)cc3)c2=O)cc1 | active: 5.8 µM
Cc1nn(C)cc1NC(=O)CC12CC3CC(CC(C3)C1)C2 | inconclusive [inhibitor, partial curve, poor fit]
O=C(C=Cc1ccccc1)CC(c1ccccc1)N1CCOCC1 (centres undefined) | active: 3.26 µM
CCN(CC)CCOC(=O)c1ccc(NC(=O)c2ccc(Cl)c(S(=O)(=O)N3CCCCCC3)c2)cc1 | inconclusive [inhibitor, single point]
CCC(=O)N(CCc1ccc(S(N)(=O)=O)cc1)C1CC(=O)N(c2ccc(OC)cc2)C1=O (centres undefined) | inactive
O=C(CC1Sc2ccccc2NC1=O)Nc1ccccc1[N+](=O)[O-] (centres undefined) | inconclusive [inhibitor, single point]
Cn1nc2c3ccccc3n(Cc3ccccc3)c2nc1=S | inconclusive [inhibitor, single point]
Cc1ccc(S(=O)(=O)N2CC(=NN=C(N)N)C2)cc1 | inconclusive [inhibitor, single point]
CC1C/C(=N\NC(=O)c2cccnc2)CC(C)(C)C1 (centres undefined) | inactive
CCOc1cccc(-c2c(C(=O)N/N=C/c3cccs3)nnn2-c2nonc2N)c1 | inactive
CC(=O)c1cccc(NC(=O)Cn2c(SCC(=O)Nc3ccc(F)cc3)nc3ccccc32)c1 | inconclusive [inhibitor, partial curve]
O=C(CSC1=NS(=O)(=O)c2cc(F)ccc2N1)NCCc1ccccc1 | inactive
COc1cccc(CNC(=O)CN(C)S(=O)(=O)c2cnc[nH]2)c1 | inactive
CCN(CC)S(=O)(=O)c1ccc(C(=O)NCCOC(=O)c2ccc(F)cc2F)cc1 | inconclusive [inhibitor, single point]
COCCCNC(=O)CSc1nc(-c2cccc(F)c2)[nH]c1-c1ccccc1 | inconclusive [inhibitor, single point]
